Here are results for 44 compounds from article PMC4336329 (PLoS ONE, 2015).

Screen size: about 310,000 compounds; about 2,200 (0.71%) showed an effect of 50% or more. The effect is printed as a negative number. The list shows a part of the results.

The target in this assay is human ether-à-go-go-related gene (hERG) potassium channel (human, UniProt Q12809). The experiment in a line: primary screen, population patch clamp on CHO cells stably expressing hERG.
Sequence of human ether-à-go-go-related gene (hERG) potassium channel (Q12809 whole entry, looked up): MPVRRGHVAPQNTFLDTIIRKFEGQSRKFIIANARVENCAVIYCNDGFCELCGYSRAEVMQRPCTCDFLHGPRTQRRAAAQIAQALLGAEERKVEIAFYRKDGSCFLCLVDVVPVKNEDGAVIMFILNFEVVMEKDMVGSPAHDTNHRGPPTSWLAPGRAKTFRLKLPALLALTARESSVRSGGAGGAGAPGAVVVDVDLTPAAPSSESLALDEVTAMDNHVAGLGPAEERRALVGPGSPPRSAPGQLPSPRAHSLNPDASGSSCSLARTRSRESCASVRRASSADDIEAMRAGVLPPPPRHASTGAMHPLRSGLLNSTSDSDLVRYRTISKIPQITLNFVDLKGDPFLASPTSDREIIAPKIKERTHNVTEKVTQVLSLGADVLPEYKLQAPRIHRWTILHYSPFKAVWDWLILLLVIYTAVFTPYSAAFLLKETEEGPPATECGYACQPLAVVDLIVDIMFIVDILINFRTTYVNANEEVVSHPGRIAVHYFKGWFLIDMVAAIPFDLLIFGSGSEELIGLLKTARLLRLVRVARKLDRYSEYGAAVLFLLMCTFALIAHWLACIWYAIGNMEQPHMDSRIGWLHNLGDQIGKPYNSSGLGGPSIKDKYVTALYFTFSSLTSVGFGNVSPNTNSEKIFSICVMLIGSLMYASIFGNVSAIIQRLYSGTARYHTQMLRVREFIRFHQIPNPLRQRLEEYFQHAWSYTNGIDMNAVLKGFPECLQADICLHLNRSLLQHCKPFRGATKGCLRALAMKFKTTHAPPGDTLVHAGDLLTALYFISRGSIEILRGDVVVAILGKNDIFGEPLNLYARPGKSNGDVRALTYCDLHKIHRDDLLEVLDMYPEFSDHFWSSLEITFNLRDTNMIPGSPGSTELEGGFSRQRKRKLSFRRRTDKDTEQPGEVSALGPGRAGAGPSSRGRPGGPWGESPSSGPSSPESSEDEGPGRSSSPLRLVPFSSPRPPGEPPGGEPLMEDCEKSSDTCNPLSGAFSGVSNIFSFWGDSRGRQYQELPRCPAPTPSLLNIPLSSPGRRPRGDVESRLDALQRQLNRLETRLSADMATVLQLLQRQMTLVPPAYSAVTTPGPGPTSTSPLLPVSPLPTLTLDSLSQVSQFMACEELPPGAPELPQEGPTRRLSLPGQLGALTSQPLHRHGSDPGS
With `Cc1ccc(-n2c3c(cc(C(=O)NCc4ccco4)c2=O)C(=O)CCC3)cc1`, the “hERG current change (%, negative = inhibition) at 1uM” value is given as 9.66%. For `CCc1ccc(C(=O)NCc2cnn(C)c2)s1`, the “hERG current change (%, negative = inhibition) at 1uM” value was -7.29%. The value for `COc1ccc(/C=C2/SC(=O)N(CC(=O)Nc3cc(C)on3)C2=O)cc1OC` was 3.08%; that for `O=C1CC(NCc2ccncc2)C(=O)N1c1ccccc1` (centres unmarked) was 10.1%. Regarding `COC(=O)c1cc(Nc2cc(C)c3ccc(O)cc3n2)cc(C(=O)OC)c1`, the “hERG current change (%, negative = inhibition) at 1uM” value worked out at 10.9%. Regarding `COc1ccccc1CCC(=O)OCC(=O)Nc1ccc(C)c(S(=O)(=O)N2CCCCC2)c1`, the “hERG current change (%, negative = inhibition) at 1uM” value was found to be 13%. The value for `CCCCc1c(C)nc2cc(-c3ccco3)[nH]n2c1=O` was 0.37%; that for `CC(C)(C)C(=O)O/N=C1\CCS(=O)(=O)c2sccc21` was -0.763%; that for `Cn1c(=O)c(C(=O)c2ccccc2)nc2ccccc21` was 6.57%. For the compound `Cc1ccc(C(=O)NCCNC(=O)c2ccco2)cc1C`, the “hERG current change (%, negative = inhibition) at 1uM” value turned out to be 12.7%.

Turning to `COC(=O)c1ccc(CSc2nnnn2C)o1`, the “hERG current change (%, negative = inhibition) at 1uM” value was 12.4%. On to `O=C(Nc1nccs1)c1cc(-c2ccccc2)nc2ccccc12`, for which the “hERG current change (%, negative = inhibition) at 1uM” value was found to be 11.1%. With `CCOC(=O)C1=C(O)/C(=C/c2ccc(OCC(=O)O)c(OC)c2)SC1=Nc1ccc(OC)cc1`, the “hERG current change (%, negative = inhibition) at 1uM” value was determined as 6.59%. The result for `O=C(NC1CCCC1)C1CC(O)CN1C(=O)Nc1ccccc1` (centres unmarked) reads 7.65%. `C/C=C/c1cc(CN2CCN(c3ccccc3)CC2)c(O)c(OC)c1`: the “hERG current change (%, negative = inhibition) at 1uM” value was 5.36%. The result for `CCOC(=O)C1=C(C)NC(=O)NC1c1cccc(O)c1` (centres unmarked) reads 17.9%.

Regarding `CN(C(=O)COC(=O)c1ccc2[nH]c3c(c2c1)CCCC3)C1CCS(=O)(=O)C1` (centres unmarked), the “hERG current change (%, negative = inhibition) at 1uM” value is given as 3.09%.

As to `CCOC(=O)c1cc2c(=O)n3ccccc3nc2n(CCOC)c1=NC(=O)c1c(-c2c(F)cccc2Cl)noc1C`, the “hERG current change (%, negative = inhibition) at 1uM” value turned out to be 8.75%. The result for `O=C(c1noc2c1CCCC2)N1CCCC(N2CCN(c3ccccc3F)CC2)C1` (centres unmarked) reads -1.37%; that for `O=C(Nc1ccc(OC(F)(F)F)cc1)N1CCN(c2ccnc3cc(Cl)ccc23)CC1`, -4.71%; that for `Cn1c2ccccc2c2nnc(SCC(=O)NC3CCCC3)nc21`, 13.1%. The value for `CCC(=O)Nc1ccc(S(=O)(=O)NCc2ccco2)cc1` was -1.3%; that for `O=c1c2cc(Br)ccc2[nH]c(=S)n1Cc1cccnc1` was 15.6%.

With `COc1ccc(CCNC(=O)C(=O)NCC2OCCN2S(=O)(=O)c2cccs2)cc1OC` (centres unmarked), the “hERG current change (%, negative = inhibition) at 1uM” value is 3.06%. The value for `O=C1NN(c2ccccc2)C(=O)C2C1C1C=CC2C12CC2` (centres unmarked) was 9.05%; that for `CCN(CC)CC(O)CN(c1ccccc1)S(=O)(=O)c1ccc2ccccc2c1.Cl` (centres unmarked) was -78.5%; that for `CC(C)(C)[C@H]1C=C(C(=O)N2CCN(Cc3ccccc3)CC2)O[C@@H](OCCCCO)C1` was 4.2%. As to `COc1ccc(CN2CCN(C(=O)c3ccc4nc(N5CCOCC5)sc4c3)CC2)c(OC)c1OC`, the “hERG current change (%, negative = inhibition) at 1uM” value stood at 4.28%. The result for `O=C(COc1ccccc1[N+](=O)[O-])Nc1cccc(Cl)c1N1CCOCC1` reads -6.04%; that for `O=C(COC(=O)COc1ccccc1F)NCCc1ccc(F)cc1`, 7.94%; that for `O=C(COC(=O)C1=COCCO1)Nc1ccccc1`, 20.5%. Turning to `CCC(Sc1nc2sc(C(=O)OC)c(C)c2c(=O)n1N)C(=O)NCC1CCCO1` (centres unmarked), the “hERG current change (%, negative = inhibition) at 1uM” value is -6.36%. Turning to `COC(=O)COc1ccc(S(=O)(=O)Nc2ccccc2C(=O)OC)cc1`, the “hERG current change (%, negative = inhibition) at 1uM” value turned out to be 7.07%.

As to `CC(C)(C)c1ccc(C(CC(=O)O)NC(=O)Cc2ccc(Cl)cc2)cc1` (centres unmarked), the “hERG current change (%, negative = inhibition) at 1uM” value came out at 13.5%.

With `COc1ccc(Cc2nc(-c3cccc(C)c3)no2)cc1`, the “hERG current change (%, negative = inhibition) at 1uM” value is -2.93%. The result for `Cc1ccc(S(=O)(=O)C2(C(=O)Nc3ccc(F)cc3)CC2)cc1` reads 3.69%. The value for `COc1cccc(OC)c1OCC(O)CN1CCN(c2ccccc2)CC1.Cl` (centres unmarked) was -1.11%; that for `C/C(N)=C(/C#N)C(=O)COC(=O)c1ccccc1C(=O)c1ccc(C)cc1` was 5.48%.

`CCOc1ccc(C(=O)NCc2ccncc2)cc1`: the “hERG current change (%, negative = inhibition) at 1uM” value is 10.5%.

For the compound `O=C(O)/C(=C\c1ccc(Br)cc1)c1ccc(S(=O)(=O)N2CCCCC2)s1`, the “hERG current change (%, negative = inhibition) at 1uM” value was found to be 8.02%. In the case of `N#CCO/N=C(\c1ccccc1)c1ccncc1`, the “hERG current change (%, negative = inhibition) at 1uM” value was 15.2%. The value for `CCOCCCNc1ccc(-c2ccccc2)nn1` was 10.5%. The result for `CCCCOc1ccc(-c2cc(C(=O)NNC(=S)NCC)c3ccccc3n2)cc1` reads 0.45%; that for `CC(=O)N1N=C(c2ccc(C)o2)CC1c1cccc(F)c1` (centres unmarked), 15.9%.
